Out of some 310,000 compounds screened, about 14,000 (4.5%) showed an effect of 50% or more. The effect is printed as a negative number. This is one part of the list.
Each compound was assayed against human ether-à-go-go-related gene (hERG) potassium channel (human, UniProt Q12809) (assay: primary screen, population patch clamp on CHO cells stably expressing hERG).
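Further: peak tail current of the secondary pulse compared with the same well before compound.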

human ether-à-go-go-related gene (hERG) potassium channel, sequence (Q12809 whole entry, looked up): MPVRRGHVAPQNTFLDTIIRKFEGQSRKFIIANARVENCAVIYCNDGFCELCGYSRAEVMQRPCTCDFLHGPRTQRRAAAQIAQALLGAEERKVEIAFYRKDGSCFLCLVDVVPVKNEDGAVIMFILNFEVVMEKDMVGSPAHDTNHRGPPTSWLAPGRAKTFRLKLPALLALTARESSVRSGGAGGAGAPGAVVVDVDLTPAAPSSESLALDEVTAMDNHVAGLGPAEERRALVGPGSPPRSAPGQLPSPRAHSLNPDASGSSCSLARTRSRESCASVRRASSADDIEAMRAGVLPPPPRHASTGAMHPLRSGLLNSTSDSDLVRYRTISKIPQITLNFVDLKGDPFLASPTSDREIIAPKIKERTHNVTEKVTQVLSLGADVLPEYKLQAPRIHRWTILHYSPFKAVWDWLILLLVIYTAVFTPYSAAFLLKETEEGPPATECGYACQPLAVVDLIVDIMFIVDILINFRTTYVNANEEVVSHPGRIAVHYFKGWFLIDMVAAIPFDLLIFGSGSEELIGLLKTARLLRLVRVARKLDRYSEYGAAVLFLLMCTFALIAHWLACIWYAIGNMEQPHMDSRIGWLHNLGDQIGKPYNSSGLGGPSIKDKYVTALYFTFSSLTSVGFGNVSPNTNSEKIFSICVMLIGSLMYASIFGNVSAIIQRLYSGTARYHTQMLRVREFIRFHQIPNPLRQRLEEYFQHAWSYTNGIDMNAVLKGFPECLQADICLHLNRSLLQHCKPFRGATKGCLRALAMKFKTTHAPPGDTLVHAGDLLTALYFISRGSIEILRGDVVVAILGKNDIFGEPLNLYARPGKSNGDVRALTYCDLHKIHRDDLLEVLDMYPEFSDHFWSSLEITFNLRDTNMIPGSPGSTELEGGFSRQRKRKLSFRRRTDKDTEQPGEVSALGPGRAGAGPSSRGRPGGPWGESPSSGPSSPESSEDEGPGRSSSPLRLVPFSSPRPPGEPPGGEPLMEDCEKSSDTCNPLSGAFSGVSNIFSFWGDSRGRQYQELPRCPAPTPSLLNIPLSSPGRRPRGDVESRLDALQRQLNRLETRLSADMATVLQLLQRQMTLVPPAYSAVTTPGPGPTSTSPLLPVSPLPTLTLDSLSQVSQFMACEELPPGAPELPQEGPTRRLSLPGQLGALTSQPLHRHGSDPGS

Structure (SMILES) | hERG current change (%, negative = inhibition) at 10uM [%]
Cc1cc(NCc2ccc(F)cc2)nc2cc(Cl)ccc12 | 15.1
O=C(CSc1nnc(-c2cccs2)n1-c1ccccc1)N1CCCc2ccccc21 | -15.6
Cc1ccc(S(=O)(=O)N2CCN(C(=O)c3cc(S(=O)(=O)N(C)C)ccc3N3CCCC3)CC2)cc1 | -11.1
Cc1cc(C)c2c(C)c(C(=O)Nc3c(C)n(C)n(-c4ccccc4)c3=O)oc2c1 | -16.7
COc1ccc(-c2cc3nc(C)cc(-c4ccc(OC)cc4)n3n2)cc1 | 18.6
Cc1ccc(OCCNC(=O)c2ccc(COc3ccccc3)o2)cc1 | -11.6
Cc1nn(CCOc2ccccc2)c(=O)n1-c1ccccc1F | 12.8
CC(=O)c1cccc(NC(=O)N2CCc3ccccc3C2)c1 | 2.24
O=C(COC(=O)c1ccc(NC(=O)C2CC=CCC2C(=O)O)cc1)c1ccccc1 (stereo not drawn) | 13.9
CCc1ccc2[nH]c(C)c(CN3CCCCCC3)c(=O)c2c1 | -46.9
CCOC(=O)c1c(S(=O)(=O)NCC(=O)Nc2cc(C)ccn2)c(C)n(C)c1C | -10.7
O=C(Nc1ccccc1)c1sc(Cl)nc1-c1ccccc1 | -24.9
COc1cc(C2N(c3cc(C)on3)C(=O)C3CCCN32)cc(OC)c1OC (stereo not drawn) | 10.4
COc1nc(OC)nc(Oc2ccc(Cl)cc2[N+](=O)[O-])n1 | 1.26
COc1ccccc1N(CN1CCCC1=O)C(=O)COc1ccccc1 | 3.46
CSCC[C@H](NC(=O)OC(C)(C)C)c1nnc(SCC(N)=O)o1 | -1.72
COC(=O)c1c(NC(=O)C(C)(C)C)sc2c1C(C(=O)OC)CC2 (stereo not drawn) | 0.0572
CN1CCN(c2nc(-c3ccccc3)c3cc(Cl)ccc3n2)CC1 | -48.1
COc1cc(C2C(C(=O)Nc3ccccc3OC)=C(C)Nc3ncnn32)ccc1O (stereo not drawn) | 14.1
O=C(CCN1C(=O)S/C(=C\c2ccccc2)C1=O)N1CCOCC1 | -5.35
CC(C)CNS(=O)(=O)c1ccc(CCC(=O)NC2CCCCC2)cc1 | 6.6

Structure (SMILES) | hERG current change (%, negative = inhibition) at 10uM [%]
Cc1cccc(NC(=O)CSc2nnc(-c3ccccc3)n2N)c1 | 6.48
Cc1cc(C)cc(N(CCC#N)C(=O)COC(=O)C2CCN(c3ccc(C(F)(F)F)cn3)CC2)c1 | -29.3
O=C(O)C1C2CCC(C2)C1C(=O)Nc1nc2ccccc2s1 (stereo not drawn) | 17.2
O=C(c1cccc(Br)c1)N1CCN(C(=O)N2CCOCC2)CC1 | 10.4
Cc1ccc2c(c1)cc(CN(Cc1cccnc1)C(=O)NCc1ccccc1)c1nnnn12 | -75.2
Cc1c(C=O)n(C)n(-c2ccccc2)c1=O | 11.5
CCC(C)NC(=O)C1CCN(S(=O)(=O)CC)CC1 (stereo not drawn) | 4.01
N=c1c(S(=O)(=O)c2ccc(Cl)cc2)cc2c(=O)n3ccccc3nc2n1CC1CCCO1 (stereo not drawn) | -13.3
COc1ccc(N2C(=O)CCC(C(=O)O)C2c2ccccc2OC)cc1 (stereo not drawn) | -8.85
CCN(CC(=O)Nc1c(F)cccc1F)C(=O)c1ccc(C)c(S(=O)(=O)N2CCCCC2)c1 | 0.825
CCOC(=O)C1=NOC(Cn2cc(C(C)=O)c(=O)[nH]c2=O)C1 (stereo not drawn) | 9.04
CC(=O)c1ccc(NC2c3ncccc3C(=O)N2Cc2ccc(F)cc2)cc1 (stereo not drawn) | -8.58
COc1ccc(C(C)=O)cc1CC(C(=O)c1ccc(C)cc1)N(C)C (stereo not drawn) | -6.61
COc1ccc(-c2nc3n(c(=O)c2C#N)CCS3)cc1OC | -2.65
CN(C(=O)CCn1c(=S)oc2ccccc21)C1CCCCC1 | -14.5
N#Cc1c(C(F)(F)F)cc(=O)n2c1[nH]c1ccccc12 | 22.4
CCOC(=O)Nc1ccc2c(c1)N(C(=O)CCN(C)C)c1ccccc1S2.Cl | -41.4
COc1ccc(C2NC(c3ccc(OC)cc3)C(c3ccccc3)C(=O)C2c2ccccc2)cc1 (stereo not drawn) | -17.7
CCN(CC(=O)Nc1ccccc1C(=O)OC)S(=O)(=O)c1ccccc1 | -9.17
COCC(=O)N(C)C1(c2nnnn2CCOC(=O)Nc2cccc3ccccc23)CCCC1 | 7.37
Cc1ccc(S(=O)(=O)N/N=C(\c2ccccc2)C2CC2)cc1 | 9.49

Structure (SMILES) | hERG current change (%, negative = inhibition) at 10uM [%]
CC1CCC2C(=O)N(c3ccc(C(=O)Oc4cccc5cccnc45)cc3)C(=O)C2C1 (stereo not drawn) | 0.202
O=[N+]([O-])c1cccc(CN2[C@@H](Cc3ccccc3)COCCS2(=O)=O)c1 | -11.3
Cc1cc(C)c(S(=O)(=O)c2cccc(Cl)c2)c(Cl)n1 | -2.46
C=CCN(C(=O)c1cccc(S(=O)(=O)N2CCN(C)CC2)c1)c1nc(-c2ccccc2)cs1 | 12.6
Cc1ccccc1NC(=O)Cc1nnc(SCC(=O)Nc2ccccc2)n1C | 2.67
CCN(CC)c1ccc(/C=N/N2CCN(Cc3ccc(Cl)cc3)CC2)c(O)c1 | 9
CC1CCCC(NC(=O)COC(=O)COc2ccc(Cl)cc2)C1C (stereo not drawn) | 7.79
CCOC(=O)N1CCN(c2nc(-c3ccco3)cc(C(F)(F)F)n2)CC1 | -3.17
O=c1c2ccccc2n(CC(O)CN2CCOCC2)c2ccccc12 (stereo not drawn) | -9.98
O=C(NCCOc1ccc(Cl)cc1)c1cccc(S(=O)(=O)N2CCCC2)c1 | -51.8
CCOc1ccc(-c2nnc(SCC(=O)NC(C)(C)C)nc2-c2ccc(OCC)c(OC)c2)cc1OC | -16.4
COc1ccc(Nc2nc(C)cc(C)n2)cc1Cl.Cl | 0.588
CC(NCC(=O)Nc1ccccc1C(=O)NC1CC1)c1ccc(S(C)(=O)=O)cc1 (stereo not drawn) | -5.26
CCOC(=O)c1sc(NC(=O)CSc2n[nH]c(-c3ccncc3)n2)c(C#N)c1C | 19
COc1ccc(N2C(=O)CSC2c2ccccc2F)c(OC)c1 (stereo not drawn) | -4.16
CCc1ccc(C(CNc2nc(C(F)(F)F)nc3ccccc23)N(C)C)cc1 (stereo not drawn) | -28
O=C1CC(N2CCN(c3ccc(Cl)cc3)CC2)C(=O)N1c1ccc(F)cc1 (stereo not drawn) | 2.72
CCc1ccc(C2(O)CC(C(F)(F)F)=NN2C(=O)Cc2ccc([N+](=O)[O-])cc2)cc1 (stereo not drawn) | 13.3
CCOC(=O)c1ccc(Nc2nc(C(=O)OCC)nc3ccccc23)cc1 | -6.6
CC(=O)Nc1ccc(S(=O)(=O)N2CCC(NC(=O)C(Cc3cccc(F)c3)NC(C)=O)CC2)cc1 (stereo not drawn) | 18.6
O=C(Nc1ccccc1)Nc1ccc(Cl)c(S(=O)(=O)N2CCOCC2)c1 | 0.512

Structure (SMILES) | hERG current change (%, negative = inhibition) at 10uM [%]
CCOC(=O)Cc1csc(/N=C/c2c(O)n(-c3ccc(C)cc3C)c(=O)c3ccccc23)n1 | -6.7
CC[C@@]12C(=O)N(c3cccc(F)c3)C(=O)N1[C@H](c1ccc(F)cc1)[C@@H]1C(=O)N(C3CCCCC3)C(=O)[C@@H]12 | 10.9
CCOC1=C/C(=C/c2c(N)n3nc(S(=O)(=O)CC)sc3nc2=O)C=CC1=O | -31.3
O=C(CCN1C(=O)/C(=C/c2ccc3c(c2)OCO3)SC1=S)Nc1ccc(C(=O)O)cc1 | 17.5
O=C1C2C3C=CC(C3)C2C(=O)N1c1ccc(N2CCN(c3ccccn3)CC2)c([N+](=O)[O-])c1 (stereo not drawn) | -18.6
O=C(c1cc2nc(-c3ccco3)cc(C(F)(F)F)n2n1)N1CCN(c2ccccc2)CC1 | -12.1
Cn1c(=O)c2c(ncn2CC(=O)Nc2cccc(S(=O)(=O)Nc3ccccc3F)c2)n(C)c1=O | 9.49
CCOC(=O)C1C(C#N)=C(N)OC(C)=C1c1ccncc1 (stereo not drawn) | -8.18
COc1ccc(CC(=O)Nc2ccncc2Cl)cc1 | 15.8
NCCCN1CCN(c2ccccc2)CC1 | -8.45
Cc1cccc(C)c1OCCCn1ccnc1 | 23.6
O=C(Cc1ccccc1)NNC(=O)C1CC=CCC1 (stereo not drawn) | 19.5
Cn1c2c(c(=O)n(C)c1=O)NC1(N2)C(=O)Nc2ccccc21 (stereo not drawn) | 13.7
CNC(=O)N(O)C1N(/N=C/c2ccccc2OC)C(=S)SC1(C)C (stereo not drawn) | 0.348
Cc1cc(C)c2c(c1)/C(=N/NS(=O)(=O)c1ccc(Br)cc1)CCC2 | -2.55
CCOC(=O)c1c(C)[nH]c(C)c1S(=O)(=O)N1CCN(C(=O)c2ccco2)CC1 | 16.5
O=C(CN1C(=O)c2ccccc2S1(=O)=O)Nc1ccccn1 | -13
CC1(C)Cc2c(cnn2-c2ccccc2)C(=O)/C1=N\NC(=O)c1ccccc1O | 1.23
Cc1ccc(-c2noc(CN(C(=O)c3cccs3)C(C)C)n2)cc1 | 1.39
Cc1ccccc1Nc1nnc(SCC(=O)Nc2ncc(C(F)(F)F)cc2Cl)s1 | -33.8
Clc1c(-c2ccccc2)nnn1-c1ccccc1 | -2.21

From article PMC4336329 (PLoS ONE, 2015)
